Measurements as given in PubChem BioAssay AID686978 (National Center for Advancing Translational Sciences (NCATS), 2013).
“And” between values parts separate entries of the source, which are not always exact repeats. Equal values may be shown once. In all, about 420,000 compounds went through this assay and about 64,000 (15%) were called active. The shares of active, inactive and inconclusive entries below differ from those in the screen. The call rests on the fitted dose curve; in most records, active means well fitted inhibition curve with a large enough effect; inconclusive means small, poorly fitted or top-dose-only effect; inactive means flat fitted curve, though single readings scatter. A potency beside an inconclusive call is a rough fit, not a confirmed value.
On the % scale 0 is the no-effect control and ±100 the full control effect; potency means the concentration at half of the fitted maximal effect; tags describe the fitted curve by direction and shape.

Experiment: qHTS for Inhibitors of human tyrosyl-DNA phosphodiesterase 1 (TDP1): qHTS in cells in absence of CPT; further: nearly all actives have a fitted effect of over 55% in size
Conditions: DT40 Tdp1-/- hTDP1 cells, no CPT, ATP luminescence, 48 h; activity change, negative = growth inhibition: at 46.2 µM (top of the series) unless noted
Method in brief: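 Compound effects on proliferation are scored in DT40 Tdp1-/-;hTDP1 cells in the absence of CPT. ATP levels (CellTiter-Glo luminescence) are recorded after a ≥48 hr, 37 °C incubation.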
For CCCCNC(=O)c1c[nH]c2ccc(S(=O)(=O)Nc3ccc(OCC)cc3)cc2c1=O, the “activity change, negative = growth inhibition” value was inactive: -6.94%. In the case of O=C1C(c2[nH]c3ccccc3c2O)=Nc2ccccc21, the “activity change, negative = growth inhibition” value is reported as inactive: -16.4%. For Cc1cc(NC(=O)c2cccc(Oc3ccccc3)c2)n[nH]1, the activity change, negative = growth inhibition was inconclusive: -35.2% [inhibitor]. For CCSCC(C)(C)n1[nH]c2ccccc2c1=O, the Potency was inconclusive: 18.4 µM [inhibitor, partial curve]. In the case of COC(=O)c1nn(-c2ccccc2)c(Cl)c1/C=N/OCc1ccc(C)cc1, the activity change, negative = growth inhibition is reported as inconclusive: -30.5% [inhibitor]. In the case of C=C1C(C(=O)Nc2ccccc2)C1C(=O)Nc1ccccc1 (stereo not given), the “activity change, negative = growth inhibition” value is reported as inactive: 0.301%. With CCN(c1ccc(Cl)cc1)S(=O)(=O)c1nnc(NC(=O)C(C)C)s1 the Potency was “inactive”. In the case of Fc1cccc(-c2cncc(N3CCN(CCN4CCCC4)CC3)n2)c1, the Potency is reported as inconclusive: 18.4 µM [inhibitor, single point]. In the case of O=C1NNC(=O)C2C3C=CC(C4CC34)C12 (stereo not given), the “activity change, negative = growth inhibition” value is reported as inactive: -11.4%. With CC(/C=N/NC(=O)c1cccnc1)=C\c1ccco1 the Potency was inconclusive: 1 µM [inhibitor, full curve]. For CC(C)C[C@H]1CN(CCCC[C@H]2CNC(=O)C(=O)N2CC2CCCCC2)C(=O)C(=O)N1CC1CCCCC1, the Potency was inconclusive: 29.1 µM [inhibitor, single point]. With Oc1ccc(Br)cc1-c1cc(-c2ccccc2F)[nH]n1 the Potency was inconclusive: 23.1 µM [inhibitor, single point]. In the case of O=C(Nc1cccc2c1CCCC2)c1ccc(Cl)c([N+](=O)[O-])c1, the Potency is reported as active: 16.4 µM. With COCCN(Cc1ccc(OC)cc1)c1c(C)nc2ccc(C(=O)Nc3ccc(NC(C)=O)cc3)cn12 the Potency was inconclusive: 20.6 µM [inhibitor, single point]. In the case of CCOC(=O)c1ccccc1NC(=O)Cn1c(=O)n(Cc2ccccc2)c(=O)c2c(C)c(C)sc21, the Potency is reported as inconclusive: 16.4 µM [inhibitor, partial curve, poor fit] and inconclusive: 25.9 µM [inhibitor, single point]. For Cc1ccc(Nc2nnc(SC/C(O)=C(\C#N)c3nc4ccccc4[nH]3)s2)c(C)c1, the Potency was inconclusive: 18.4 µM [inhibitor, single point]. For CCNc1nc(NC(C)C)nc(Oc2ccc(OCCOc3ccc(C)cc3)nn2)n1, the Potency was inconclusive: 20.6 µM [inhibitor, single point]. In the case of COc1ccc(OCC(=O)Nc2ccc(N3CCN(C(=O)c4ccccc4C)CC3)cc2)cc1, the Potency is reported as inconclusive: 14.6 µM [inhibitor, partial curve, poor fit]. With CCOc1cc(C2c3c(oc4ccccc4c3=O)C(=O)N2c2nccs2)ccc1O (stereo not given) the Potency was inconclusive: 14.6 µM [inhibitor, single point]. For Clc1ccc(CN2CCSCC2)cc1Cl, the “activity change, negative = growth inhibition” value was inactive: 3.43%. In the case of CC(C)(C)OC(=O)N1CCC(c2c(C(=O)NCc3ccco3)cnn2-c2ccc(F)cc2)CC1, the Potency is reported as inconclusive: 29.1 µM [inhibitor, single point]. With COc1cc(OC)cc(C(=O)Nc2cccc(N3CCCC3)c2)c1 the Potency was inconclusive: 23.1 µM [inhibitor, single point]. With Cc1cc(C)nc(NS(=O)(=O)c2ccc(N3C(=O)C4CCCCC4C3=O)cc2)n1 (stereo not given) the “activity change, negative = growth inhibition” value was inactive: 16.2%. For O=C(CSc1nnc(-c2ccncc2)n1Cc1ccco1)Nc1nc(-c2ccccc2)cs1, the Potency was inconclusive: 18.4 µM [inhibitor, single point]. With Cc1noc(C)c1S(=O)(=O)N1CCCC(C(=O)NCCC2=CCCCC2)C1 (stereo not given) the Potency was active: 16.4 µM. With COc1cc(NC(=O)CCn2c(=S)oc3ccccc32)cc(OC)c1OC the “activity change, negative = growth inhibition” value was inactive: -11.9%. For Cc1ccccc1Nc1nc(-c2sc(NC(=O)c3ccco3)nc2C)cs1, the Potency was inconclusive: 25.9 µM [inhibitor, single point]. For CN(C(=S)Nc1ccc(F)cc1)C(c1ccccc1)c1ccccc1, the Potency was inconclusive: 29.1 µM [inhibitor, single point]. For CCCC(=O)OCC1CN(Cc2ccco2)S(=O)(=O)c2c(F)cccc2O1 (stereo not given), the “activity change, negative = growth inhibition” value was inactive: -18.8%. For COCCN(C(=O)COC(=O)c1cc(C)oc1C)c1c(N)n(Cc2ccccc2)c(=O)[nH]c1=O, the “activity change, negative = growth inhibition” value was inactive: 1.01%. For CCN(c1ccccc1)S(=O)(=O)c1ccc(C(=O)Nc2ccccc2OC)cc1, the Potency was inconclusive: 20.6 µM [inhibitor, partial curve]. With Cc1ccc2sc(NNC(=O)C3COc4ccccc4O3)nc2c1C (stereo not given) the Potency was inconclusive: 29.1 µM [inhibitor, single point]. With CC(/C=N/NC(=O)Cc1cccs1)=C\c1ccco1 the Potency was inconclusive: 18.4 µM [inhibitor, partial curve]. In the case of COc1ccc([N+](=O)[O-])cc1NC(=O)CSc1nc(C)cc(C)n1, the Potency is reported as inconclusive: 23.1 µM [inhibitor, single point]. In the case of Fc1ccccc1-n1[nH]nnc1=S, the Potency is reported as inconclusive: 25.9 µM [inhibitor, single point]. In the case of Cc1ccsc1C(=O)NNC(=S)NC1CCCCC1, the Potency is reported as inconclusive: 29.1 µM [inhibitor, single point]. In the case of CN(C)c1ccc(NC(=O)Cn2c(SCc3ccccc3F)nc3cccnc32)cc1, the activity change, negative = growth inhibition is reported as inconclusive: -31% [inhibitor]. For FC(F)Oc1ccc(NC(=S)NC2CCCCCCC2)cc1, the Potency was inconclusive: 20.6 µM [inhibitor, single point]. For Cc1ccc(C)c(S(=O)(=O)c2nnn3c2nc(NCc2ccc4c(c2)OCO4)c2sccc23)c1, the Potency was inconclusive: 29.1 µM [inhibitor, single point]. With N=c1c(C(=O)NCC2CCCO2)cc2c(=O)n3ccccc3nc2n1Cc1ccccc1Cl (stereo not given) the Potency was active: 1.3 µM. With O=C(Nc1cccnc1Oc1ncnc2cc(Cl)ccc12)c1ccc(F)cc1 the “activity change, negative = growth inhibition” value was inactive: 1.07%. For CN(C)c1ccc(C(CNS(=O)(=O)c2ccc(Br)cc2)N2CCOCC2)cc1 (stereo not given), the Potency was inconclusive: 20.6 µM [inhibitor, single point]. For COc1ccc(C)cc1NC(=O)C1CCCN(S(=O)(=O)c2cccc3nonc23)C1 (stereo not given), the Potency was inconclusive: 29.1 µM [inhibitor, single point]. With O=C(CCSc1ccc(Cl)cc1)Nc1cccnc1 the Potency was inconclusive: 20.6 µM [inhibitor, single point]. With CCN(CC)c1nc(Nc2ccccc2)nc(Oc2ccc(C(=O)OC)cc2)n1 the Potency was inconclusive: 20.6 µM [inhibitor, single point]. With CC1CCN(Cc2c(C(=O)O)nnn2-c2nonc2N)CC1 the “activity change, negative = growth inhibition” value was inactive: 11.8%. For CCCCC12CN3CC(C)(CN(C1)C3c1ccc([N+](=O)[O-])o1)C2=O (stereo not given), the “activity change, negative = growth inhibition” value was inactive: -10.6%. With COc1ccc(-c2nnc(SCC(=O)Nc3ccc(F)cc3)s2)cc1 the “activity change, negative = growth inhibition” value was inactive: -18.4%. In the case of O=c1c2c3c(sc2n2cnnc2n1CCc1ccccc1)CCCC3, the Potency is reported as inconclusive: 18.4 µM [inhibitor, partial curve]. In the case of CCCCN1C(=S)NC[C@@H]1Cc1ccccc1, the Potency is reported as inconclusive: 29.1 µM [inhibitor, single point]. For N=c1n(CCc2ccccc2)c2ccccc2n1Cc1ccccc1F, the Potency was active: 5.17 µM. With CCN(CC)Cc1c(C(=O)N/N=C/c2ccccn2)nnn1-c1nonc1N the “activity change, negative = growth inhibition” value was inactive: 5.32%. In the case of CCCc1cc(Nc2cccc(OCC)c2)n2ncnc2n1, the Potency is reported as inconclusive: 23.1 µM [inhibitor, single point]. With CC(C)Cn1c(N)c(C(=O)COC(=O)c2ccccc2C(=O)c2ccccc2)c(=O)n(C)c1=O the Potency was active: 9.2 µM. In the case of OCC(Cc1ccc2c(c1)OCO2)C(CO)Cc1ccc2c(c1)OCO2 (stereo not given), the Potency is reported as inconclusive: 23.1 µM [inhibitor, single point]. For O=c1nc2s/c(=C\c3ccco3)c(=O)n2nc1Cc1ccccc1, the “activity change, negative = growth inhibition” value was inactive: -27.8%. In the case of C[C@H](CO)N1C[C@H](C)[C@H](CN(C)S(=O)(=O)c2cccc(F)c2)OCc2ccccc2-c2c(n(C)c3ccccc23)C1=O, the Potency is reported as active: 16.4 µM. With C[C@@H](c1ccccc1)N1C[C@@H](COCc2ccccc2)Oc2cc(N3CC[C@H](O)C3)ccc2S1(=O)=O the Potency was active: 18.4 µM. In the case of Nc1nonc1-c1nc2ccccc2n1CC(=O)N1CCN(c2ccc(F)cc2)CC1, the Potency is reported as active: 12.6 µM. For COc1cc(-c2cc(NC=O)c3ncc(-c4ccc(C(C)=O)cc4)n3c2)cc(OC)c1OC, the Potency was active: 7.31 µM. With Cc1ccc2nc(C3CCCCC3)c(CC(C)(C)C)n2c1 the Potency was active: 16.4 µM. For Cc1ccc(OCCC(=O)OCC(=O)N2CC(=O)Nc3ccccc32)cc1, the Potency was inconclusive: 4.11 µM [inhibitor, single point]. In the case of CC(C)c1ccc(/C=N/Nc2ccc(C(=O)O)cc2)cc1, the “activity change, negative = growth inhibition” value is reported as inactive: 3.61%. With N#CCSc1nnc(C2CCCCC2)n1Cc1ccccc1 the “activity change, negative = growth inhibition” value was inactive: -21.5%. In the case of COc1cccc(N/C=C(\C#N)c2ccc(OCCCF)cc2)c1, the Potency is reported as inconclusive: 5.8 µM [inhibitor, partial curve]. With Cc1ccc(-c2c(C(=O)NCCc3ccc(Cl)cc3)oc(=O)c3ccccc23)cc1 the Potency was inconclusive: 29.1 µM [inhibitor, single point]. With CC1(c2ccccc2)CC(C)(C)N2C(=O)C3(C(C#N)=C(N)Oc4cc(O)ccc43)c3cccc1c32 (stereo not given) the Potency was inconclusive: 18.4 µM [inhibitor, single point]. For COC(=O)c1c(-c2ccccc2OC)sc2ccc(OC)cc12, the Potency was inconclusive: 20.6 µM [inhibitor, single point]. For CC[C@H](C)[C@H](NC(=O)OCc1ccccc1)C(=O)OCC(=O)N1CCN(c2ccc(F)cc2)CC1, the Potency was inconclusive: 29.1 µM [inhibitor, single point]. In the case of Nc1ccn([C@@H]2O[C@H](C(=O)N3CCCN(Cc4ccccc4F)CC3)[C@@H](O)[C@H]2O)c(=O)n1, the “activity change, negative = growth inhibition” value is reported as inactive: -20.8%.
